Data published in PubChem BioAssay AID1468 (National Center for Advancing Translational Sciences (NCATS), 2008).
The whole screen tested about 280,000 compounds, of which about 1,100 (0.39%) were called active. Inconclusive results, whose numbers are uncertain, are shown with a selection of clear calls. Calls come from the whole dose curve; as a rule, active = well fitted inhibition curve with a large enough effect; inconclusive = small, poorly fitted or top-dose-only effect, or effect the other way; inactive = flat fitted curve, though single readings scatter. Potencies of inconclusive entries are left out as doubtful fits.

These compounds were tested against Microtubule-associated protein tau (Homo sapiens) (UniProt P10636) (assay: qHTS for Inhibitors of Tau Fibril Formation, Fluorescence Polarization). Settings: K18 P301L tau heparin fibrillization, Alexa594 FP, 6 h; series mostly up to 57.7 µM.
Procedure, shortened: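 Compound effects on tau fibrillization are measured by Alexa 594 fluorescence polarization (ex 555, em 632 nm). K18 P301L tau is used at 15 uM with 0.24 uM labeled tracer, and 20 uM heparin induces aggregation over 6 hr at 37 C.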
Note: nearly all actives have a fitted effect of over 55% in size.
Potency is the fitted concentration of half-maximal effect; tags give direction and shape of the fitted curve.

Chain of UniProt P10636 (P10636 whole entry, looked up): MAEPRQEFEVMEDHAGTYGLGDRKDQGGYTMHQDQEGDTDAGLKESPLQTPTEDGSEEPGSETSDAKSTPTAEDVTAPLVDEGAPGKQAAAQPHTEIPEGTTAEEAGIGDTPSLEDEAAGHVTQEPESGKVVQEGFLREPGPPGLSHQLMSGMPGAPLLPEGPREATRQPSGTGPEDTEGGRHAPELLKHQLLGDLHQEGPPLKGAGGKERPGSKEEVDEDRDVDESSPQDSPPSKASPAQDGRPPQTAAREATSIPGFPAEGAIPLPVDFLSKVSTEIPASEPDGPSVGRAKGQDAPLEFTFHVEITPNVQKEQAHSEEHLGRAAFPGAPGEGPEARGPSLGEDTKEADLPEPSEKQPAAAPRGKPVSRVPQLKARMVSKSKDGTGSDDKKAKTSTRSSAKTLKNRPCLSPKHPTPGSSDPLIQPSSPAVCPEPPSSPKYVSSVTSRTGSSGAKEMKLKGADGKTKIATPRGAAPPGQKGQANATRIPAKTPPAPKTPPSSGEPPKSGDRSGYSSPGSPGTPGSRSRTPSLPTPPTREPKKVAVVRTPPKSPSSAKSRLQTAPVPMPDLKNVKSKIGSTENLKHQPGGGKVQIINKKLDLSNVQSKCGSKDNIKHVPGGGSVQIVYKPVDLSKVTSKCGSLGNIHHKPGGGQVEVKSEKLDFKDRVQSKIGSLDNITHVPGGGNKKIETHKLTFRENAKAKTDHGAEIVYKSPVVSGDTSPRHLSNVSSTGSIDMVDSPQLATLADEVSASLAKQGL

Compound	Potency
CCOC(=O)c1ccc(NC(=O)Nc2cc(C)on2)cc1	inconclusive [inhibitor, single point]
Cc1sc(NC(=O)C2c3ccccc3Oc3ccccc32)c(C(=O)OC(C)C)c1C	inconclusive [inhibitor, partial curve, poor fit]
COc1ccc(Cl)cc1-n1c(C)cc(C(=O)O)c1C	inactive
COc1ccc(OC)c(C2CC(=O)N3CN(c4ccccc4)CSC3=C2C#N)c1 (stereo unspecified)	active: 15.8 µM
CC1CCC(=NNc2ccc(C(F)(F)F)cc2[N+](=O)[O-])CC1 (stereo unspecified)	inconclusive [activator, partial curve, poor fit]
C=CCSC1=NC(=O)/C(=C/c2cccs2)S1	inconclusive [inhibitor, single point]
COc1cc(NC(=O)CN(C)S(=O)(=O)c2ccc3c(c2)CCC(=O)N3)cc(OC)c1	inconclusive [inhibitor, single point]
CC(=O)c1cccc(N(CC(=O)N2CCCC2)S(C)(=O)=O)c1	inactive
COc1ccc(NC(=O)C(=O)NNC(=O)C(C)Oc2ccc(Cl)cc2Cl)cc1 (stereo unspecified)	inactive
COc1ccc(Cn2c3ccc(OC)cc3c3nc4ccccc4nc32)cc1	inconclusive [activator, partial curve]
Cc1ccc(/C=C/C(=O)NC2CCCCCCC2)o1	inconclusive [inhibitor, single point]
CCOC(=O)c1c(C)[nH]c(CCC(=O)NCc2cc(Br)ccc2OC)c1C	inactive
COc1ccc2c(c1)c(=O)c(S(=O)(=O)c1ccc(F)cc1)cn2CC(=O)Nc1ccc(C)cc1C	inconclusive [inhibitor, single point]
N#C/C(=N\Nc1ccc(Cl)cc1)C(=O)c1ccccc1	inactive
O=C(O)CN(CCO)CCN(CC(=O)O)CC(=O)O	inconclusive [inhibitor, single point]
O=C(CCNS(=O)(=O)c1ccc(Br)s1)Nc1ccc(Br)cc1	inconclusive [inhibitor, single point]
COc1ccc(NC(=O)CC2Sc3ncnn3C2=O)cc1 (stereo unspecified)	inactive
COc1ccc(NCC(=O)Nc2ccc(C#N)cc2)cc1Cl	inconclusive [activator, partial curve, poor fit]
O=S(=O)(c1ccc(Cl)c(NC(=S)Nc2cccc(O)c2)c1)N1CCOCC1	inactive
Cc1nc(-c2ccccc2)sc1-c1ccc(SCC(=O)Nc2ccccc2)nn1	inconclusive [inhibitor, full curve, poor fit]
CCOc1ccc(-n2c(SCC(=O)Nc3ccc(Br)cc3)nc3n[nH]c(C)c3c2=N)cc1	inconclusive [inhibitor, single point]
O=C(NCc1ccccc1Cl)c1cc(-c2ccccc2)n[nH]1	inactive
O=C(CS(=O)(=O)c1nc(-c2ccc(Cl)cc2)cn1-c1ccccc1)Nc1cccc(Cl)c1	inconclusive [inhibitor, partial curve]

Compound	Potency
Cc1ccc(NC(=O)C2=C(c3ccccc3)S(=O)(=O)CCS2(=O)=O)cc1	active: 28.2 µM
COc1ccc(S(=O)(=O)N(C)CC(=O)NCc2ccco2)cc1	inactive
COc1cccc(NC(=O)c2csc3c2CCCCC3)c1	inconclusive [inhibitor, single point]
CCc1ccc(NC(=O)N2CCN(c3nnc(C)c4c(C)n(-c5ccc(Cl)cc5)nc34)CC2)cc1	inconclusive [activator, single point]
C=CCn1c(-c2ccc(Cl)cc2)c[nH]c1=S	inactive
COc1ccc(-c2nc(SCC(=O)NCC3CCCO3)c(-c3ccc(C)cc3)[nH]2)cc1OC (stereo unspecified)	inconclusive [activator, partial curve]
COc1ccc(C)cc1NS(=O)(=O)c1ccc2c(c1)CCCN2C(C)=O	inactive
O=C(N1CCOCC1)C1(c2ccccc2)CCCCC1	inactive
Cc1cc2ccccc2n1CCNC(=O)c1cccs1	inactive
O=C(NCc1ccc(Cl)cc1)c1cc2cccc3c2n1CCS3	inconclusive [inhibitor, single point]
CN1CCc2c(sc3nc(SCC(N)=O)n(-c4ccccc4)c(=O)c23)C1	inconclusive [inhibitor, single point]
Cc1cccc(NC(=O)Cn2c(=O)n(Cc3nc(-c4ccccc4)no3)c(=O)c3ccccc32)c1	inconclusive [inhibitor, partial curve]
N#C/C(=C\Nc1ccccc1O)c1nc2ccccc2o1	inconclusive [inhibitor, single point]
Cn1cnc(S(=O)(=O)N2CCC(C(=O)Nc3ccc(OC(F)(F)F)cc3)CC2)c1	inconclusive [inhibitor, single point]
CCN(CC)c1cc(NC2CCCCC2)c2c3c(onc13)-c1ccccc1C2=O	inconclusive [inhibitor, single point]
O=C(Nc1cccc(C(F)(F)F)c1)c1ccc2nc(-c3ccco3)c(-c3ccco3)nc2c1	inconclusive [inhibitor, single point]
CCCOc1c(Cl)cc(/C=N/O)cc1OCC	inconclusive [inhibitor, single point]
O=c1c2sc3ccccc3c2n(Cc2cccc(Cl)c2)c(=O)n1Cc1ccc(F)cc1	inactive
CC(C)C(=O)c1ccc(O)c(O)c1	inactive
C=CCc1cc(OC)ccc1OCCON1C(=O)CCC1=O	inconclusive [inhibitor, single point]
CCCn1cnc2c1c(=O)n(CCCCC(C)=O)c(=O)n2C	inconclusive [inhibitor, single point]
CCn1ncc(C2=NOC(C(=O)Nc3ccc4c(c3)OCO4)C2)c1C (stereo unspecified)	inactive
O=C(Nc1nc(-c2ccncc2)cs1)C1COc2ccccc2O1 (stereo unspecified)	inconclusive [inhibitor, single point]
